Laboratory results from the supplement of paper PMC11417369.
± gives the standard deviation of the averaged measurements. The list shows a part of the results.

System: PfAP2-LT AP2 domain (GST-tagged)
Experiment: gcPBM binding intensity (ln(normalized median fluorescence intensity)); higher = stronger DNA binding
How it was run: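 Plasmodium falciparum DNA-binding domains carrying a GST tag were expressed in E. coli and applied for 1 h, at about 25 μg on average, to an Agilent 4 × 180k array. The array held primer-extended double-stranded 36-bp intergenic genomic probes together with negative controls, and binding took place in 1× PBS with 1% milk, 0.2 mg/ml BSA, 0.5% salmon testes DNA and 0.03% Triton X-100. An Alexa488 anti-GST antibody detected bound protein, and the array was scanned at 488 nm. Binding intensity is taken as the highest Masliner-normalised natural-log median intensity across replicate spots of either probe orientation.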

Sequence	gcPBM binding intensity (ln)
CATTCTACAATAAAAAGTACATATATATATTATATA [XGTACX_site921]	8.55 ± 0.53
TCAAAAAAAATTTTAGTGCATATTTTAGTCAAAACA	8.25 ± 0.44
TAATATTTCGTTAAGTTTTAAAGAAAAAAAAAAAAA [CACACA_negctrl_site1253]	8.21 ± 0.53
ATTTAAATAATATGTACACACATTTAAAAAGTTATA [CACACA_site7347]	8.8 ± 0.31
TTTTTATAACATAAAAGTACATATTTTTAATTTAAT [XGTACX_site4394]	8.22 ± 0.44
ACACATATAATAGTTACATGCAAAAATACTTTTATT [TGCATGCA_site785]	9.03 ± 0.47
AAATTAAATGATAGAGCATGCGCTAAAAATGAGAAA [TGCATGCA_site937]	9.05 ± 0.38
TTTTTTTTATTATAAATATATATATTATAAAACGAA [XGTACX_negctrl_site189]	7.99 ± 0.31
ACCCAAGAGAAAAGAGAAAGAAATATGTGTATATTG [GTGCAC_negctrl_site214]	8.72 ± 0.47
ATATATATATATATAACATGCAAAGTTCAAAAAAAA [TGCATGCA_site943]	8.96 ± 0.37
TTATAGTAATAATAATGTACATTTATACACATATAT [XGTACX_site1965]	8.94 ± 0.47
AAAAAAAACAGACACACACACACATATACATACATA [CACACA_site2665]	10.3 ± 0.17
CATTATGTTGTAAATACACACATACCTATACATACA [CACACA_site6485]	9.07 ± 0.28
TATTTATTTATATTTACACACATTCATATAAATTCA [CACACA_site7628]	8.92 ± 0.44
TTTTTTTTTTTATCTGCACACCCTTTTGTGAATATT [CACACA_site789]	9 ± 0.48
TCTGAGAATGATAAAAAAAAAAAAAATGAAAAATTA [CACACA_negctrl_site1478]	8.24 ± 0.63
ATGCAATAAATATACACACACAAATCTATATTTATA [CACACA_site7179]	9.46 ± 0.29
AAATAAAATAATTATAATACTAAAAATAATACATAA [GTGCAC_negctrl_site106]	8.65 ± 0.52
AGTTCAAGGATTAAGACACACATATAAATAAATAAA [CACACA_site3662]	8.97 ± 0.61
AATTATTATATATATATATATATATATTTATATATT [GTGCAC_negctrl_site387]	9.05 ± 0.3
AAAAAATGGATGATCACACACTTCATAAAAGTTGCA [CACACA_site7109]	8.86 ± 0.5
TTTTTTTTGTAGAATTGTACTTATAAAATATATATA [XGTACX_site2116]	8.34 ± 0.45

Sequence	gcPBM binding intensity (ln)
AATGAGCGTTAAAAATGTACAGAAAATTGGAATTAT [XGTACX_site5743]	8.91 ± 0.5
AAAACTTTTAGTTATACACACAACATAGAAAATATT [CACACA_site6287]	8.88 ± 0.33
AACAATCAAATAGACACACACACACCCAAACATAAA [CACACA_site2757]	10.1 ± 0.11
CTCCTACAAATATGTAGTACATTCAAAATAAATACC [XGTACX_site8207]	8.56 ± 0.38
AAAAAAAAAAAATTCACACACATATAAAAAATTAAG [CACACA_site728]	8.96 ± 0.47
GTAAAAAATATGAATACACACATAAAGGAAATAACA [CACACA_site1997]	9.32 ± 0.52
AAAAAAAAAAAAAAAAGTACAGACGTCAAAAAAAAA [XGTACX_site4817]	8.77 ± 0.59
TTTTTTTTTTTTTTTTTTTTTTTTGGGTCCCATACA [CACACA_negctrl_site913]	8.07 ± 0.51
TAATATATAAGTATTTGTACATATTCATTCATCTAT [XGTACX_site2935]	8.84 ± 0.4
TTTTAATTATATTATGCACACACAATTGGAAAAAAA [CACACA_site8598]	8.85 ± 0.41
AACAAATAAGATAAATGACTTAACAAAAGAAAAAAG [CACACA_negctrl_site1409]	8.89 ± 0.45
CTTATACATTATTAACGTACATGTTATATGAATAAC [XGTACX_site5752]	8.69 ± 0.34
TTTTTTTTTTTTTTTTTTTTTTTTAAATGCTTCTAA [TGCATGCA_negctrl_site253]	7.92 ± 0.22
GTCACATTGTTATATTGTACAAATGTCGTTCTTTTT [XGTACX_site8098]	9.11 ± 0.41
CACTATCAATATATATGTACATATATATATATATAT [XGTACX_site7854]	9.71 ± 0.31
TAAATATATAAATACACACAAACATACATATATATA [CACACA_site4050]	9.24 ± 0.34
ATATAAAAATATATTAATATAAATAAATGGACATAT [XGTACX_negctrl_site488]	8.88 ± 0.41
ACAACAATATGGAATTGTACATATATATATAAATAT [XGTACX_site3139]	9.07 ± 0.47
CTAGCAAATACATACACACACACACCCATACATATA [CACACA_site3496]	9.95 ± 0.18
TATTTTTTTGTGTTTGGTACACACGTTATAAAAAAT [XGTACX_site2655]	8.8 ± 0.36
TACACAAAACATAAAAGTACATAATAATAAAGTTAA [XGTACX_site8872]	8.96 ± 0.55
GAACAAATAAAAAGGAGTACAATCAAATCTACGTAT [XGTACX_site343]	9.07 ± 0.57
